This note sets out measurements from article PMC10726135.

This is one part of the list. At the low end of the ranking, values are background and their order means little. Measured with an extract: partners may take part in the binding.

This experiment has as its target T1, HNF4alpha8 (COS-7 nuclear extract) (UniProt P41235-5).
T1 sequence: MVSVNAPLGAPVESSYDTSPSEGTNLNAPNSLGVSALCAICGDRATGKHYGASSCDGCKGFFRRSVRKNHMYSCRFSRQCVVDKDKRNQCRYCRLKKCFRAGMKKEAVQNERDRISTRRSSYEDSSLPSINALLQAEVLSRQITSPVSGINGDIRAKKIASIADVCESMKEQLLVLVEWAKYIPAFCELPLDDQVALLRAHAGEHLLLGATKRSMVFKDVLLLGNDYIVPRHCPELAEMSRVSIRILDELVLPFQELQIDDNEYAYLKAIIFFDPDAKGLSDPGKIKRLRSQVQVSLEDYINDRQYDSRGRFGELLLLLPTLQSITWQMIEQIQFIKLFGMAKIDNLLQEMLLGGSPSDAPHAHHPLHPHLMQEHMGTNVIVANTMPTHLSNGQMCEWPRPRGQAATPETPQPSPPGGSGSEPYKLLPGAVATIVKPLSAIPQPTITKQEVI
Put plainly: protein-binding microarray. The following applies: COS-7 nuclear extract on double-stranded Agilent 4x180k PBM; binding buffer, salt, pH and temperature not given; high values mean tight binding; double strand, one strand shown; sequences stand for … in …GCCTAGGGAGATTAGAGTATCGGTCGA
As for ATTCCTTGGACTCTGCCACTGGTTTGCACA, the binding signal (log2 normalized intensity) stood at 1.82.

With TTTGCCTCCCTGCATTCCATTTCTGCCCCT, the binding signal (log2 normalized intensity) came out at 4.17. Next, TCAAAGAACAAGTATCCTGGTAGTGCGACA: -1.31. Then ATGGGGTGGGGCAGAAAGGGCATGGATTTA, with -1.29; and CCAGATATAGGGGAGGTCCTAAAGAGGATA, with -1.31; and CGCTCCCCGACCTCCTGCTGCAGCTCTGGG, with -0.577. Regarding TCTGCTCCCCCTGCCCTTCGTCCTGAGCAG, the binding signal (log2 normalized intensity) amounted to 2.59.

For the sequence CACATGTACACAGGAATATCAACAGGAGCA, the binding signal (log2 normalized intensity) was -1.35.

Take TCTGTTTTAGTTGAGTGTGACAAGAAAGAC: the binding signal (log2 normalized intensity) amounted to 0.382. Then TGCCCTGGACATATTTGTCTTCCTATCTCC, with 0.97; and TTACTTCCACATGTGGGGAAACTGGACTGT, with 3.6. Then TATATGACTCTAGATTGTTTGTTCTTGCTA, with -1.17; and TTTTTGATTACCTTAGGGGGAAACAAAAGA, with -1.16; and TCTTCACCGTAAAGCCACCCCTTTCTCCTC, with 3.29. Then TCACCCTCTCCACCCCCATGCAAGTTCCCA, with 5.59.

In the case of AGGATTTTATTCAGGTGGCCACTGGCCCAG, the binding signal (log2 normalized intensity) is -0.981. Then TGCAACATACTGAAAAAGGGTTGTGCAAAC, with 0.0709; and ACAGGGAGTCTGTTGCAAGCAATGGAGAGG, with -1.33; and CGAAAGCCGGTTCCCGCCCAAGGAGACAGG, with -1.22. Then CAAATATTAGAACAAACGACGCTCCTATCA, with -1.17; and ATTTCCAAAAGGTACCACTGTTTGCAGCTG, with -1.34; and GCAGCCTCCAAGATAAAGGGTCAGATTGTA, with 1.96. Then TTCTGCTATCTGCCTGCAGGAGAGAGCAAA, with -1.22. As to TTAACAAAATTCAACAAGACCCTGCCCTTT, the binding signal (log2 normalized intensity) is 4.08.

Take CCTGGAATGACAAGAATTGGAACCCTGCTG: the binding signal (log2 normalized intensity) is -0.884. Next, AGGTCAACTGCCCTCTCAAATTACAAGGAG: -0.902.

In the case of TTCGGGGCACTGCTCCCTGCCCCTACCCCC, the binding signal (log2 normalized intensity) turned out to be 5.02. Next, CCTTAAGAGTTAATAACAGACCATGCCATG: -1.27. Next, CAAAGCATAGCAAGAGTGACCTTTGCTCCA: 9; TCAGACTGGTGTAGTGGGGAGGGCATGGAC: 0.343. Then TGTCTGCTGAGAGATTCCTCTGCACAATAA, with -0.694. With CTATGGAACATGGACTTTGAACCTCTCTTC, the binding signal (log2 normalized intensity) is 9.09. Next, TCCAAAGTCCAGGTGCTTTCTTCTTGATCA: 2.62; TGCCCTGGGTAAACAGACCTCTCTCTCCCC: 2.02.

As to AGATAACAAGGGCATGTAAAGGAGATTATC, the binding signal (log2 normalized intensity) is -1.03.

In the case of GCAGGCCCATCTGGGACTTCAAAGCGCAGC, the binding signal (log2 normalized intensity) is -1.33. With CCCAGACTGAATCACACTACTGGCTTTTCT, the binding signal (log2 normalized intensity) was -1.29.

Turning to TTCCACACAGGTTATCTCATTACTCTGCAT, the binding signal (log2 normalized intensity) is -1.04. Take CAGCAGATAAGGCTAATCCTTACACAGCAG: the binding signal (log2 normalized intensity) is -1.32.

For the sequence TTGCATGGTTGACATACTTCTGAGTTTTAT, the binding signal (log2 normalized intensity) is 1.68. Then TTGTTTACCTTGGTGTTTCTTTGATGTGAA, with 1.88; and CAGTCTAAAGTAAATACCATTAGGGGGCAA, with 1.71; and AGTATTTAGCTTCCTCCCTTGGAATGTGAC, with 1.84. Next, GCTTGGCAAACATTTCACTTTGCTCCCTCC: 2.18. Next, ATTGCCGACCTCATGAGTAGAGAGCAATCA: -0.943; CAGCTTTTATGTCAAACCACTTCCCCTTTC: 1.98. On to CCTGTTTGCTTCTGCTGTTTGTTTCACTAA, for which the binding signal (log2 normalized intensity) was 1.09.

Turning to TGTCAGCTAGAGGCCCTGCATTAAACAAGA, the binding signal (log2 normalized intensity) was -1.31.

Take TCACTGACCTCTGCCCTACTGTATATCCTG: the binding signal (log2 normalized intensity) was determined as 2.89.

As for ACTTTGGTGGCTTTTGCTGACATGCTCTTG, the binding signal (log2 normalized intensity) worked out at 0.777. Turning to TCTCAAGTTCAGTCTTTATTGGTACGTTCC, the binding signal (log2 normalized intensity) turned out to be 1.33. Next, CTCCCCCAGGCGACTGGGCCAGGAGCAGGA: 2.92. Next, AAACTTTATCTCCCTTGCTTTATCCGACCA: 0.31.

For the sequence TTGAGGTTCACTGGGGAGACTCTCTCTCCT, the binding signal (log2 normalized intensity) is -0.788. Then ATCTAAGGGCCTAGAAGAGTTCCTGACAAT, with -1.3; and TAACAGCTTCTGTTCGCAGACCTGCCAAAG, with -1.3; and GTGGGGGAGGAGACAGCTACGGAATGCTTC, with -1.39. Next, ATTCAGAACTTTGACCACCTACTGTTTGTG: 2.47; TGGCTCATTTTGGGCATCTGCAGGGCAGCA: -1.29.

With AGCGGCCTTCCCCTTTTTCTGTAAAGCTTT, the binding signal (log2 normalized intensity) was 0.737. Next, TTGCTCCCTGGGAACCCCTCCAGCATTCTC: 2.3.

Take ACACACAATAAGGACTTTGGACCGTCTTGT: the binding signal (log2 normalized intensity) came to 8.19.

Consider CCTCAGTAAATGCTGGAGATGAGGCTCAGA, for which the binding signal (log2 normalized intensity) is -1.32.

With GCACACAAAAAAAACCACTCTTATCAGGCC, the binding signal (log2 normalized intensity) was -1.33.

As for CCAGAGTAACTATGGGGCAAAGTGCAAGCA, the binding signal (log2 normalized intensity) was 4.93. Then GGGCCTTTCCAGCAAATCCCAATTCACTGA, with -1.38; and TCAGCAGAGGACAGAAGAAGGAAAAGGCCT, with -1.27. With AGGCCTTCCTATCTCTACTTGCCGAAACAT, the binding signal (log2 normalized intensity) came to 1.12. Then CCATGACCTTTGTACTAATGATTTGTAAAT, with 6.03. Then GAACTCTAAGCAGCGAAGCTGTGTCAGGCA, with -1.29; and GTGTGGCTTCCAAGGGGAATGTGGATGCTG, with -1.31. Then TTCCAGCCAAACCAGGTCATGCATTCTGCT, with -1.19.
